For the test, the system named is V-C8 (BRCA2-deficient hamster cells). As to the kind of experiment: normalised cell viability (fraction of plate median); higher = more viable cells (less toxic). Conditions: 5 µM. A digest of the protocol:
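Library drugs, held as 10 mM stocks in DMSO, were diluted to 5 μM in 100 μl medium and added to 96-well plates of V-C8 hamster cells, either lacking BRCA2 or with BRCA2 restored, 24 h after seeding. Plates ran for 3 days (screen 1) or 6 days (screen 2), alongside solvent-only wells. Viability came from a resazurin readout, median-plate normalised, as the mean of triplicate wells.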

Structures are written as SMILES. Counter-ions that a name gives are not always drawn. ± gives the standard deviation of the averaged measurements. In all, about 1,300 compounds were measured (“normalised cell viability”: median about 1, lowest 2% from about 0.14 on). The list shows a part of the results.

Molecule `Cc1c(NC(=O)c2cccnc2)c(=O)n(-c2ccccc2)n1C` [Nifenazone] came in with a normalised cell viability (treatment time: 3 days) of 0.973 ± 0.068 and a normalised cell viability (treatment time: 6 days) of 1.02 ± 0.061.
For `CS(=O)(=O)OCCCCOS(C)(=O)=O` [Busulfan] the same measures were 0.778 ± 0.0098 and 0.845 ± 0.052.
Regarding `CC(C)NC[C@@H](O)COc1ccc(CC(N)=O)cc1` [(R)-(+)-Atenolol], the normalised cell viability was determined as 0.8746 ± 0.0079 (treatment time: 3 days) and 0.934 ± 0.083 (treatment time: 6 days).
The like results for `NS(=O)(=O)c1cc2c(cc1C(F)(F)F)NCNS2(=O)=O` [Hydroflumethiazide] were, in that order, 0.98 ± 0.037 and 0.9712 ± 0.0089.
For `CC[C@@H]1C(=O)OC[C@@H]1Cc1cncn1C` [Pilocarpine nitrate] the same measures were 1.04 ± 0.032 and 1.07 ± 0.05.
For `CN(CCCCCCCCCCN(C)C(=O)Oc1cccc([N+](C)(C)C)c1)C(=O)Oc1cccc([N+](C)(C)C)c1` [Demecarium bromide] the same measures were 0.828 ± 0.022 and 0.812 ± 0.013.
As to `CC(=O)N(CC(O)CO)c1c(I)c(C(=O)NCC(O)CO)c(I)c(C(=O)NCC(O)CO)c1I` (configuration not stated) [Iohexol], the normalised cell viability (treatment time: 3 days) amounted to 1.08 ± 0.043 and the normalised cell viability (treatment time: 6 days) stood at 1.02 ± 0.026.
For `COC(=O)Nc1nc2cc(Sc3ccccc3)ccc2[nH]1` [Fenbendazole] the same measures were 0.187 ± 0.0098 and 0.181 ± 0.013.
As for `CN1CCN(CC(=O)N2c3ccccc3C(=O)Nc3cccnc32)CC1` [Pirenzepine dihydrochloride], the normalised cell viability worked out at 1.07 ± 0.067 (treatment time: 3 days) and 1.11 ± 0.1 (treatment time: 6 days).
The like results for `Cn1c(=O)c2c(ncn2CC2OCCO2)n(C)c1=O` [Doxofylline] were, in that order, 1 ± 0.036 and 1.07 ± 0.029.
The like results for `CCOc1nc2cccc(C(=O)O)c2n1Cc1ccc(-c2ccccc2-c2nnn[nH]2)cc1` [Candesartan] were, in that order, 1.027 ± 0.01 and 1.003 ± 0.0042.
As to `C[C@@](Cc1ccc(O)c(O)c1)(NN)C(=O)O` [Carbidopa], the normalised cell viability runs as follows: (treatment time: 3 days) 1.12 ± 0.052; (treatment time: 6 days) 0.994 ± 0.089.
For `Nc1ncnc2c1ncn2[C@@H]1O[C@H](CO)[C@@H](O)[C@@H]1O` [Vidarabine] the same measures were 0.921 ± 0.021 and 0.964 ± 0.032.
The like results for `CCC1(c2ccccc2)C(=O)NCNC1=O` [Primidone] were, in that order, 1.01 ± 0.013 and 0.993 ± 0.051.
`CC(=O)OC[C@H]1O[C@@H]([S-])[C@H](OC(C)=O)[C@@H](OC(C)=O)[C@@H]1OC(C)=O.CCP(CC)CC.[Au+]` [Auranofin]: the normalised cell viability by setting is: (treatment time: 3 days) 0.117 ± 0.0046; (treatment time: 6 days) 0.141 ± 0.0027.
Turning to `CN(C)CCC(c1ccc(Br)cc1)c1ccccn1` (configuration not stated) [Brompheniramine maleate], the normalised cell viability (treatment time: 3 days) came to 0.902 ± 0.041 and the normalised cell viability (treatment time: 6 days) turned out to be 0.961 ± 0.072.
Take `O=C1CC[C@@H](C(=O)N2CSC[C@H]2C(=O)O)N1` [Pidotimod]: the normalised cell viability by setting is: (treatment time: 3 days) 1.04 ± 0.062; (treatment time: 6 days) 1.07 ± 0.032.
For `Oc1c(Cl)cc(Cl)c2cccnc12` [Chloroxine] the same measures were 0.57 ± 0.026 and 0.583 ± 0.014.
For `c1ccc(-c2ccc(C(c3ccccc3)n3ccnc3)cc2)cc1` (configuration not stated) [Bifonazole] the same measures were 0.878 ± 0.032 and 0.74 ± 0.06.
With `CCN(CC)C(=O)c1ccc(O)c(OC)c1` [Ethamivan], the normalised cell viability turned out to be 1.06 ± 0.014 (treatment time: 3 days) and 1.03 ± 0.066 (treatment time: 6 days).
With `O=C(c1ccc(F)cc1)C1CCN(CCn2c(=O)[nH]c3ccccc3c2=O)CC1` [Ketanserin tartrate hydrate], the normalised cell viability runs as follows: (treatment time: 3 days) 0.994 ± 0.049; (treatment time: 6 days) 0.976 ± 0.08.

The values are drawn from the supplement of paper PMC6609913.
